We go through 20 molecules from the supplement of paper PMC9446081.

The whole screen tested about 39,000 compounds, of which about 220 (0.56%) showed activity. This is one part of the list.
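Further: static incubation at 37 °C against the wild-type strain, values averaged over two biological replicates.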

This test deals with Escherichia coli K-12 BW25113. Put plainly: relative growth (OD600 normalised to plate interquartile mean) (fraction); higher = less growth inhibition, active = 0.2 or less. The conditions noted are these: 50 µM; LB; incubation time: overnight (16-24 h).
In the case of `COc1cc(CCC(=O)O)oc(=O)c1`, the relative growth is inactive: 0.969.
Next, `COc1oc(C(=O)NC2CCCCC2)c(-c2ccc(Cl)cc2)c1S(=O)(=O)/C=C/c1ccccc1`: inactive: 0.875; `C[C@@H]1CN([C@@H](C)CO)C(=O)Cc2cc(NC(=O)Nc3cccc4ccccc34)ccc2O[C@H]1CN(C)CC1CCCCC1`: inactive: 1.05.
`C[C@@H]1CCCCO[C@H](CN(C)S(=O)(=O)c2ccc(F)cc2)[C@@H](C)CN([C@H](C)CO)C(=O)c2cc(NS(C)(=O)=O)ccc2O1`: the relative growth was inactive: 1.03.
In the case of `O=C(Cc1ccccn1)NCC[C@@H]1CC[C@H](NC(=O)CN2CCOCC2)[C@H](CO)O1`, the relative growth was inactive: 0.962.
The result for `C[C@@H](N)CO` reads inactive: 1.02; that for `C[C@@H]1CN([C@@H](C)CO)C(=O)c2cccc(NS(=O)(=O)c3cn(C)cn3)c2O[C@H]1CN(C)S(=O)(=O)c1ccc(Cl)cc1`, inactive: 1.
Next, `Nc1cc(=O)nc2sc(C3CC3)nn12`: inactive: 1.02.
Next, `COc1ccc2c3c([nH]c2c1)[C@H](CO)N(Cc1ccccc1)C[C@]13CCN(CC1)C(=O)Nc1cccc(c1)F`: inactive: 0.996; `O=C(C1=C[C@H](c2ccsc2)C[C@H](OCCCCO)O1)N1CCN(Cc2ccc3c(c2)OCO3)CC1`: inactive: 1.01.
On to `Nc1nc2c(ncn2COCCO)c(=O)[nH]1`, for which the relative growth was inactive: 1.06.
For the molecule `CNC[C@@H]1Oc2ccc(NC(=O)CCN3CCOCC3)cc2CC(=O)N([C@H](C)CO)C[C@H]1C`, the relative growth is inactive: 0.987.
On to `CN(C)CCOc1ccc([N+](=O)[O-])cn1`, for which the relative growth is inactive: 1.01.
The result for `C[C@@H]1CN([C@@H](C)CO)C(=O)Cc2cc(NS(=O)(=O)c3ccccc3)ccc2O[C@H]1CN(C)S(C)(=O)=O` reads inactive: 1; that for `CNC[C@@H]1OCCCC[C@@H](C)Oc2ccc(NS(=O)(=O)c3c(C)noc3C)cc2C(=O)N([C@H](C)CO)C[C@H]1C`, inactive: 0.984.
Next, `C[C@H]1CN([C@@H](C)CO)C(=O)c2cc(NC(=O)Nc3cccc4ccccc34)ccc2O[C@@H]1CN(C)C(=O)Nc1ccc(F)cc1`: inactive: 1; `C[C@H](CO)N1C[C@H](C)[C@@H](CN(C)S(=O)(=O)c2cn(C)cn2)Oc2c(NC(=O)Nc3ccccc3)cccc2C1=O`: inactive: 1; `CC(C)NC(=O)N(C)C[C@@H]1OCCCC[C@H](C)Oc2ccc(NS(C)(=O)=O)cc2C(=O)N([C@@H](C)CO)C[C@H]1C`: inactive: 0.991.
The result for `C[C@@H]1CN([C@H](C)CO)S(=O)(=O)c2ccc(C#CC3CCCC3)cc2O[C@@H]1CN(C)Cc1cncnc1` reads inactive: 0.979.
Take `COc1ccc([Si](C)(C)[C@H]2[C@H](CCO)O[C@@]3(C(=O)N(Cc4cccc(N5CCCCC5=O)c4)c4ccccc43)[C@@H]2C)cc1`: the relative growth is inactive: 1.
